From article PMC4336329 (PLoS ONE, 2015)
The whole screen tested about 310,000 compounds, of which about 14,000 (4.5%) showed an effect of 50% or more. Effects have a minus sign here. The list shows a part of the results.

The molecules below were run against human ether-à-go-go-related gene (hERG) potassium channel (human, UniProt Q12809) (assay: primary screen, population patch clamp on CHO cells stably expressing hERG).
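Also: peak tail current of the secondary pulse compared with the same well before compound.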

Sequence of human ether-à-go-go-related gene (hERG) potassium channel (Q12809 whole entry, looked up): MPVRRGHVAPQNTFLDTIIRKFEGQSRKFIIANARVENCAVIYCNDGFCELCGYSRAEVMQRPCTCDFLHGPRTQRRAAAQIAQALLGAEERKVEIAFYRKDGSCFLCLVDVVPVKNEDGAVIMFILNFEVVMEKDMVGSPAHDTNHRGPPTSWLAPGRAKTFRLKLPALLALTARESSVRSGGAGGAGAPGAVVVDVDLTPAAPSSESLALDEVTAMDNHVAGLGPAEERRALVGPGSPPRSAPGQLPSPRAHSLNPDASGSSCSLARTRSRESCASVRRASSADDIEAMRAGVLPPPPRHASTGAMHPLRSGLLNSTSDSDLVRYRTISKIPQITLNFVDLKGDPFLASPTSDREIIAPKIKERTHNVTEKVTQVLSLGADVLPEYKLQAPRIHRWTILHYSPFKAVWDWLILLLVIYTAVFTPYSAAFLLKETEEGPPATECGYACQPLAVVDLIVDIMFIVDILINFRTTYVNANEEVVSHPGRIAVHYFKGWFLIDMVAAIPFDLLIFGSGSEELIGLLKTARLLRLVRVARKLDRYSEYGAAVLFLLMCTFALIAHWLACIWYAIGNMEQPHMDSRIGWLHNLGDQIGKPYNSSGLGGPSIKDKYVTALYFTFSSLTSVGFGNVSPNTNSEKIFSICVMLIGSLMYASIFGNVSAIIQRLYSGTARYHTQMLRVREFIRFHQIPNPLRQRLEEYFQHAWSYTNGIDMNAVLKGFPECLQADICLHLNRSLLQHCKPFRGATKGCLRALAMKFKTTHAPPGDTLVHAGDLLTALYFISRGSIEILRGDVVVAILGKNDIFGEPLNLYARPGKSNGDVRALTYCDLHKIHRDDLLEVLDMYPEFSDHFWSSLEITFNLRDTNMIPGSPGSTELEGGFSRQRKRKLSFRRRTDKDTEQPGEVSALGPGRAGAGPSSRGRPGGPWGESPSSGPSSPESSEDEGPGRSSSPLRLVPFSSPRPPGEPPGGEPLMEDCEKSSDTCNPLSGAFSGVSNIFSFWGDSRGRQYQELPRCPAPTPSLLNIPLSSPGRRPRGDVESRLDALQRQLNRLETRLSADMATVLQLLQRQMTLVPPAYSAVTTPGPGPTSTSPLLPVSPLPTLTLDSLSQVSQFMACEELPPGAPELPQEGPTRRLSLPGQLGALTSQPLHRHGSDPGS

SMILES | hERG current change (%, negative = inhibition) at 10uM
CNNC(=O)C(C)NC(=O)c1ccc(Br)cc1 (stereo not drawn) | -13.4%
O=C(O)C(=O)O.O=S(=O)(c1ccc(F)cc1)N1CCN(Cc2ccccn2)CC1 | 15.6%
N#CC1=C(SCC(=O)c2ccc(Br)cc2)NC2=C(C(=O)CCC2)C1c1ccco1 (stereo not drawn) | -17.3%
CC(=O)Nc1ccc(OCC(=O)NC(C)c2ccc(F)cc2)cc1 (stereo not drawn) | 18.5%
O=C1NC(=O)/C(=C/c2cccc(O)c2)N1 | 21%
COc1cc(C(=O)NCCC(=O)NC2CCCc3ccccc32)cc(OC)c1OC (stereo not drawn) | 26.9%
C=CCn1c(COc2ccccc2F)nnc1SCCN1C(=O)c2ccccc2C1=O | -41.6%
O=C(OC(C(=O)NC1CCCC1)c1ccccn1)c1cccs1 (stereo not drawn) | -3.4%
CCOc1cc(/C=C(\C#N)c2nc3ccccc3[nH]2)ccc1OC(C)C(=O)O (stereo not drawn) | 14.5%
O=C(O)c1cccc2c1C(=O)N(c1ccccc1)C2 | 11.5%
Cc1nn(C)c(-c2n[nH]c(=S)n2-c2ccccc2)c1Cl | 32.4%
COc1ccccc1-c1oc2ccccc2c1C#CCCO | 0.326%
COc1ccc(-c2ccc(NC(=O)c3ccco3)cc2)nn1 | 5.79%
COC(=O)c1c(NC(=O)CSc2nc3ccccc3c(=O)n2Cc2ccco2)sc(C)c1C | -3.44%
CCN1CCN(CC(=O)c2c[nH]c3ccccc23)CC1 | -2.02%
Cc1ccc(NC(=O)C(C)c2ccc([N+](=O)[O-])cc2)cc1Cl (stereo not drawn) | 1.23%
Cc1nn(CC(=O)Nc2ccc(C(=O)N(C)C)cc2)c(=O)c2ccccc12 | 7.63%
Cc1ccc(C2CC(=O)N3CN(Cc4ccco4)CSC3=C2C#N)cc1 (stereo not drawn) | 11.3%
CCn1c(N)c(C(=O)NCc2cccnc2)sc1=S | -13.9%
CC1(C)CC2(CCO1)C(Nc1ccccc1)=NC(=S)N2CC(N)=O (stereo not drawn) | 15.5%
CCCCCOCC1CC(C/C(C)=N/NC(N)=O)(C(=O)OCC)C(=O)O1 (stereo not drawn) | 0.081%
CC1CN(c2oc(-c3ccco3)nc2C#N)CC(C)O1 (stereo not drawn) | 2.66%

SMILES | hERG current change (%, negative = inhibition) at 10uM
c1ccc(Cn2nnnc2C(c2ccccc2)N2CCN(c3nc4ccccc4s3)CC2)cc1 (stereo not drawn) | -11.7%
Cc1cc(OCC(=O)OCC(=O)N2c3ccccc3NC(=O)C2(C)C)ccc1Cl | 5.9%
COc1ccc(OC)c(/C=N/NC(=O)CN2CCSCC2)c1 | 0.397%
NCCCn1cnc2ccccc21 | 9.44%
CC(C)C(=O)NC(NCC1CCCO1)C(Cl)(Cl)Cl (stereo not drawn) | 15.9%
COc1cccc(N2CCN(c3ccc4nnc(CCC(=O)Nc5cccc(C(C)=O)c5)n4n3)CC2)c1 | -3.68%
CCOc1ccccc1NS(=O)(=O)c1ccc2c(c1)N(C)CCO2 | 7.1%
CC(C)CC(=O)N1CCN(S(=O)(=O)c2ccc3ccccc3c2)CC1 | -12.9%
CO/N=C(\C(=O)N[C@@H]1C(=O)N2C(C(=O)[O-])=C(COC(N)=O)CS[C@H]12)c1ccco1.[Na+] | 18.9%
COc1ccccc1C(C)N(C)Cc1nc(COc2ccccc2)no1 (stereo not drawn) | 4.69%
CC(=O)Nc1ccc2c(c1)C(=O)N(c1cccc(C)c1)C2=O | 2.75%
COc1cccc(/C=N/n2c(-c3cc(C)[nH]n3)n[nH]c2=S)c1OC | 11.2%
Cc1cc(C)cc(NC(=O)N2CCNC(=O)C2CC(=O)Nc2cc(Cl)ccc2Cl)c1 (stereo not drawn) | 9.28%
Cc1cc(C)c(NC(=O)CCCN2CCN(C)CC2)c(C)c1 | -3.31%
CCCCS(=O)(=O)NC1=NCN(CC)CN1 | 9.98%
COc1ccccc1NC(=O)CN1C(=O)COc2ccc(S(=O)(=O)N3CCOCC3)cc21 | -8.99%
CC(C)COc1ccc(C(=O)N/N=C/c2ccoc2)cc1 | 3.4%
CCc1ccccc1NC(=O)CC(NCc1ccccc1)C(=O)O (stereo not drawn) | 22.5%
CC1=C(C(=O)N2CCCCCC2)C2(CCC(C)CC2)OC1=O (stereo not drawn) | 2.11%
Cc1ccc(SCc2cn3c(C)cc(C)nc3n2)cc1 | -67.1%
O=C(O/N=C/c1cccc([N+](=O)[O-])c1)C1CC1 | 0.336%
COc1ccc(-n2c(C)nc3c(cnn3-c3ccc(C)c(C)c3)c2=O)cc1 | -11.2%

SMILES | hERG current change (%, negative = inhibition) at 10uM
Nc1ccccc1C(=O)NC12CC3CC(CC(C3)C1)C2 | -0.22%
CCc1ccc(NC(=O)C2CC(=O)N=C(N)S2)cc1 (stereo not drawn) | 15.7%
Cc1cc(NC(=O)CSc2nnc(-c3ccccc3)n2C)no1 | 10.1%
COc1ccc(N2C(=O)CC(N3CCN(C(=O)c4ccco4)CC3)C2=O)cc1 (stereo not drawn) | 2.47%
O=C(CCc1nnc2n(Cc3ccc(Cl)cc3)c(=O)c3ccccc3n12)NCCN1CCCC1 | -75.8%
CC(C(=O)Nc1ccccc1C(=O)N1CCOCC1)N(c1ccccc1)S(C)(=O)=O (stereo not drawn) | 11.1%
COc1ccc(CNC(=O)CSc2nc(SC)ns2)cc1 | -15.2%
Cc1cc(NC(=O)CN2CCOCC2)n(-c2ccccc2)n1 | 0.107%
O=[N+]([O-])c1cccnc1SCc1ccccc1 | 18%
COc1ccc(CN2CCCC(CO)(Cc3ccc(F)cc3)C2)cc1C (stereo not drawn) | -47.7%
CC(=O)Nc1ccc(-c2nnc(SCC(=O)c3ccc4c(c3)Cc3ccccc3-4)n2C)cc1 | 10.8%
Cc1ccccc1CSc1nc2ccccc2c(=O)n1C | 25.5%
CC(=O)Nc1ccc2c(c1)NC(=O)CC2 | 18.3%
COc1ccc(CNC(=O)C2=CC(c3ccc(OC)c(OC)c3)=NS(=O)(=O)N2C)cc1 | -21.8%
CC(=O)c1ccc(NC(=O)CSc2nc(C3CC3)nc3ccccc23)cc1 | 15%
O=C(NC(C(=O)N/N=C/c1c2ccccc2cc2ccccc12)c1n[nH]c(=O)c2ccccc12)c1ccccc1 (stereo not drawn) | 12.4%
N#Cc1ccc(NCCc2ccccn2)c([N+](=O)[O-])c1 | -74%
CCC1Sc2ccc(S(=O)(=O)CCC(=O)Nc3c(Cl)cc(OC)cc3OC)cc2NC1=O (stereo not drawn) | 5.6%
CCN(C(=O)COC(=O)c1cc(-c2cccc3ccccc23)nc2ccccc12)C1CCS(=O)(=O)C1 (stereo not drawn) | -6.23%
COc1cc2c(cc1OC)C(COc1ccc3c(C)cc(=O)oc3c1)N(C(=O)c1ccco1)CC2 (stereo not drawn) | -17.5%
CN1CCN(S(=O)(=O)c2cccc(C(=O)N(Cc3nnc(-c4ccc(Cl)cc4)o3)C3CC3)c2)CC1 | -49.3%
CC(NC(=O)CN(C)CC(=O)Nc1ccc(Cl)c(C(F)(F)F)c1)c1ccccc1 (stereo not drawn) | -12.7%

SMILES | hERG current change (%, negative = inhibition) at 10uM
COc1ccc(CNC(=O)CCC(=O)Nc2ccc(Cl)cc2)cc1 | 10.9%
CC(=O)N1CCN(c2cc(N3CCc4ccccc4C3)c(F)cc2[N+](=O)[O-])CC1 | -41.3%
Cc1cc(C)n(C(=O)c2nn(C)c(C)c2[N+](=O)[O-])n1 | 16.4%
O=C(Nc1ccc(Cl)cc1)N1CCC(CO)(Cc2ccccc2)CC1 | -46.6%
O=C(NCc1ccccn1)c1ccc(Cl)c(S(=O)(=O)N2CCCCC2)c1 | -10.1%
Cc1ccc(S(=O)(=O)NCCC(=O)NCc2cccnc2)cc1 | 13.6%
CCOc1ccccc1-n1c(C)nc2cc(C(=O)O)ccc21 | -6.4%
O=C(Nc1ccc(-c2ccccc2)cc1)c1ccco1 | 19%
CCOC(=O)NN1C(=O)c2ccccc2NC1c1ccccc1F (stereo not drawn) | -0.943%
Cc1onc(-c2ccccc2Cl)c1C(=O)N(Cc1nc(-c2ccccc2)no1)C1CCCCC1 | -7.51%
CC[C@@]12C(=O)N(c3cccc(F)c3)C(=O)N1[C@H](c1ccc(Br)cc1)[C@@H]1C(=O)N(C(C)(C)C)C(=O)[C@@H]12 | -4.75%
Cc1ccc(-c2cc(-c3ccccc3)nc(Cl)n2)cc1 | -6.29%
Cc1nc(SCC(=O)NCc2ccc(F)cc2)c2c(=O)n(C)c(=O)n(C)c2n1 | 5.05%
NC(=O)CC[C@@H]1NC(=O)[C@H](CO)NC(=O)c2cc([N+](=O)[O-])cc(I)c2OCC[C@@H](C(N)=O)NC1=O | 3.83%
Nc1ccc(C(=O)Nc2ccccc2N)cc1 | 17.1%
COc1ccc2occ(C(=O)c3coc4ccc(O)c(CN(C)C)c34)c2c1.Cl | -72.1%
Cn1c(=O)c2c(nc(CN3CCN(C(=O)c4ccco4)CC3)n2CCCO)n(C)c1=O | -27.6%
CCC(CC)c1nc(NCCC(=O)O)c2ccccc2n1 | 6.5%
CCn1c(SCC(=O)N(C)CC(=O)Nc2cccc(OC)c2)nnc1-c1ccco1 | 7.35%
Cc1ccc(CN(Cc2cc3cc4c(cc3[nH]c2=O)OCCO4)Cc2nnnn2Cc2ccco2)cc1 | -9.78%
N/C(=N\OC(=O)c1cnn(-c2ccccc2)c1C(F)(F)F)c1ccc(C(F)(F)F)cc1 | 15.8%
